# Measurements: the supplement of paper PMC10037445
# In all, about 2,900 compounds were measured (“IRF Lucia reporter activity, fold change vs agonist alone”: median about 0.9, highest 2% from about 2.8 on). Some of the results follow.
# Legend:
# [1] = tested on: RAW-Dual; assay: IRF Lucia reporter activity, fold change vs agonist alone; cytotoxicity flag (confluency mask): not cytotoxic; higher = enhanced IRF activity
# Procedure, shortened: (§1)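 RAW-Dual macrophages were seeded in DMEM at 50,000 cells/well in 384-well plates, given 50 nL of library stock by pin tool, and given a PRR agonist 1 h later. Plates were held at 37 °C, 5% CO2 for 20 hours, after which supernatant was read for IRF by QuantiLuc luminescence and for NF-κB by QuantiBlue absorbance at 620 nm. Reporter activity is expressed as fold change over wells that received agonist alone. A well was called cytotoxic when IncuCyte confluency fell below 70% of agonist controls in both mask sets.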
# [2] = tested on: RAW-Dual; assay: IRF Lucia reporter activity, fold change vs agonist alone; higher = enhanced IRF activity; conditions: agonist: MPLA (TLR4) […]
# Procedure, shortened: as §1
# [3] = tested on: RAW-Dual; assay: IRF Lucia reporter activity, fold change vs agonist alone; cytotoxicity flag (confluency mask): cytotoxic (confluency <70% of control); higher = enhanced IRF activity
# Procedure, shortened: as §1
# [4] = agonist: 3'3'-cGAMP (STING) 10 ug/mL
# [5] = library stock concentration (final ~1000-fold dilution): 10 mM, cytotoxicity flag (confluency mask): not cytotoxic
# [6] = library stock concentration (final ~1000-fold dilution): 10 mM water, cytotoxicity flag (confluency mask): not cytotoxic
smiles,measurement,setting,value
CC1COC2(CCN(c3nc(=O)c4cc(C(F)(F)F)cc([N+](=O)[O-])c4s3)CC2)O1 (stereo not given) (library stock concentration (final ~1000-fold dilution): 10 mM),IRF Lucia reporter activity,[1]; [4],0.953
same,IRF Lucia reporter activity,[1]; agonist: LPS (TLR4) 0.1 ug/mL,1.18
O=C1C(Cl)=C(N2CCOCC2)C(=O)N1c1ccc(Cl)c(Cl)c1 (library stock concentration (final ~1000-fold dilution): 10 mM),IRF Lucia reporter activity,[1]; [4],0.55
same,IRF Lucia reporter activity,[1]; agonist: LPS (TLR4) 0.1 ug/mL,0.547
Cc1ccc(-c2cc(C(F)(F)F)nn2-c2ccc(S(N)(=O)=O)cc2)cc1 (library stock concentration (final ~1000-fold dilution): 10 mM),IRF Lucia reporter activity,[1]; [4],0.764
same,IRF Lucia reporter activity,[1]; agonist: LPS (TLR4) 0.1 ug/mL,1.05
Cc1ccc(-c2cc(C(F)(F)F)nn2-c2ccc(S(N)(=O)=O)cc2)cc1,IRF Lucia reporter activity,[2]; [5],0.709
CCCCCCCCCC(=O)NC(Cc1c[nH]c2ccccc12)C(=O)NC(CC(N)=O)C(=O)NC(CC(=O)O)C(=O)NC1C(=O)NCC(=O)NC(CCCN)C(=O)NC(CC(=O)O)C(=O)NC(C)C(=O)NC(CC(=O)O)C(=O)NCC(=O)NC(CO)C(=O)NC(C(C)CC(=O)O)C(=O)NC(CC(=O)c2ccccc2N)C(=O)OC1C (stereo not given),IRF Lucia reporter activity,[2]; [5],0.741
CCCCCCCCCC(=O)NC(Cc1c[nH]c2ccccc12)C(=O)NC(CC(N)=O)C(=O)NC(CC(=O)O)C(=O)NC1C(=O)NCC(=O)NC(CCCN)C(=O)NC(CC(=O)O)C(=O)NC(C)C(=O)NC(CC(=O)O)C(=O)NCC(=O)NC(CO)C(=O)NC(C(C)CC(=O)O)C(=O)NC(CC(=O)c2ccccc2N)C(=O)OC1C (stereo not given) (library stock concentration (final ~1000-fold dilution): 10 mM),IRF Lucia reporter activity,[1]; [4],0.986
same,IRF Lucia reporter activity,[1]; agonist: LPS (TLR4) 0.1 ug/mL,0.824
O=C(NCCN1CCOCC1)Nc1nc2ccc(Sc3nnc4ccc(-c5ccc(F)cc5)nn34)cc2s1 (library stock concentration (final ~1000-fold dilution): 10 mM),IRF Lucia reporter activity,[1]; [4],1.09
same,IRF Lucia reporter activity,[1]; agonist: LPS (TLR4) 0.1 ug/mL,1.23
O=C(NCCN1CCOCC1)Nc1nc2ccc(Sc3nnc4ccc(-c5ccc(F)cc5)nn34)cc2s1,IRF Lucia reporter activity,[2]; [5],0.994
CC1(C)SC2CC(=O)N2C1C(=O)OCOC(=O)C1N2C(=O)C(NC(=O)C(N)c3ccccc3)C2S(=O)(=O)C1(C)C.Cc1ccc(S(=O)(=O)O)cc1 (stereo not given) (library stock concentration (final ~1000-fold dilution): 10 mM),IRF Lucia reporter activity,[1]; [4],1
same,IRF Lucia reporter activity,[1]; agonist: LPS (TLR4) 0.1 ug/mL,0.905
CC1(C)SC2CC(=O)N2C1C(=O)OCOC(=O)C1N2C(=O)C(NC(=O)C(N)c3ccccc3)C2S(=O)(=O)C1(C)C.Cc1ccc(S(=O)(=O)O)cc1 (stereo not given),IRF Lucia reporter activity,[2]; [5],0.995
COc1cc2c3cc1Oc1c(OC)c(OC)cc4c1C(Cc1ccc(O)c(c1)Oc1ccc(cc1)CC3N(C)CC2)N(C)CC4.Cl.Cl (stereo not given),IRF Lucia reporter activity,[2]; [5],1.26
COc1cc2c3cc1Oc1c(OC)c(OC)cc4c1C(Cc1ccc(O)c(c1)Oc1ccc(cc1)CC3N(C)CC2)N(C)CC4.Cl.Cl (stereo not given) (library stock concentration (final ~1000-fold dilution): 10 mM),IRF Lucia reporter activity,[1]; [4],0.764
same,IRF Lucia reporter activity,[1]; agonist: LPS (TLR4) 0.1 ug/mL,0.916
Nc1ccn(C2OC(CO)C(O)C2O)c(=O)n1 (stereo not given),IRF Lucia reporter activity,[2]; [6],1.3
Nc1ccn(C2OC(CO)C(O)C2O)c(=O)n1 (stereo not given) (library stock concentration (final ~1000-fold dilution): 10 mM water),IRF Lucia reporter activity,[1]; [4],0.909
same,IRF Lucia reporter activity,[1]; agonist: LPS (TLR4) 0.1 ug/mL,0.832
COc1ccc2cc1Oc1ccc(cc1)CC1c3cc(c(OC)cc3CCN1C)Oc1c(O)c(OC)cc3c1C(C2)N(C)CC3 (stereo not given) (library stock concentration (final ~1000-fold dilution): 10 mM),IRF Lucia reporter activity,[3]; [4],1.21
same,IRF Lucia reporter activity,[3]; agonist: LPS (TLR4) 0.1 ug/mL,1.55
COc1ccc2cc1Oc1ccc(cc1)CC1c3cc(c(OC)cc3CCN1C)Oc1c(O)c(OC)cc3c1C(C2)N(C)CC3 (stereo not given),IRF Lucia reporter activity,"[2]; library stock concentration (final ~1000-fold dilution): 10 mM, cytotoxicity flag (confluency mask): cytotoxic (confluency <70% of control)",2.82
Cn1cc(-c2[nH]c3cc(NC(=O)C(N)C4CCCCC4)cc4c3c2C=NNC4=O)cn1 (stereo not given),IRF Lucia reporter activity,[2]; [5],0.374
Cn1cc(-c2[nH]c3cc(NC(=O)C(N)C4CCCCC4)cc4c3c2C=NNC4=O)cn1 (stereo not given) (library stock concentration (final ~1000-fold dilution): 10 mM),IRF Lucia reporter activity,[1]; [4],0.209
same,IRF Lucia reporter activity,[1]; agonist: LPS (TLR4) 0.1 ug/mL,0.213
CC(C=CC1=C(C)CCCC1(C)C)=CC=CC(C)=CC(=O)O (library stock concentration (final ~1000-fold dilution): 1 mM),IRF Lucia reporter activity,[1]; [4],0.568
same,IRF Lucia reporter activity,[1]; agonist: LPS (TLR4) 0.1 ug/mL,0.167
O=C(O)c1ccnc(C(=O)O)c1 (library stock concentration (final ~1000-fold dilution): 10 mM),IRF Lucia reporter activity,[1]; [4],1.04
same,IRF Lucia reporter activity,[1]; agonist: LPS (TLR4) 0.1 ug/mL,1.03
O=C(O)c1ccnc(C(=O)O)c1,IRF Lucia reporter activity,[2]; [5],1.01
CC(=O)NC(CC(=O)O)C(=O)NC(CCC(=O)O)C(=O)NC(C(=O)NC(C=O)CC(=O)O)C(C)C (stereo not given) (library stock concentration (final ~1000-fold dilution): 10 mM water),IRF Lucia reporter activity,[1]; [4],1.37
same,IRF Lucia reporter activity,[1]; agonist: LPS (TLR4) 0.1 ug/mL,0.992
Cl.Clc1ccccc1CN1CCc2sccc2C1,IRF Lucia reporter activity,[2]; [6],1.32
Cl.Clc1ccccc1CN1CCc2sccc2C1 (library stock concentration (final ~1000-fold dilution): 10 mM water),IRF Lucia reporter activity,[1]; [4],1.07
same,IRF Lucia reporter activity,[1]; agonist: LPS (TLR4) 0.1 ug/mL,0.892
CN(CCCCCCCCCCN(C)C(=O)Oc1cccc([N+](C)(C)C)c1)C(=O)Oc1cccc([N+](C)(C)C)c1 (library stock concentration (final ~1000-fold dilution): 10 mM),IRF Lucia reporter activity,[1]; [4],1.12
same,IRF Lucia reporter activity,[1]; agonist: LPS (TLR4) 0.1 ug/mL,0.993
